# Assay results taken from PubChem BioAssay AID504333 (National Center for Advancing Translational Sciences (NCATS), 2011).
# The whole screen tested about 360,000 compounds, of which about 16,000 (4.4%) were called active. The shares of active, inactive and inconclusive entries below differ from those in the screen. The call rests on the fitted dose curve; in most records, active means well fitted inhibition curve with a large enough effect; inconclusive means small, poorly fitted or top-dose-only effect; inactive means no such curve, though single readings can be large or run the other way. Where the call is inconclusive, the potency comes from a doubtful curve fit.
# Biological target: Bromodomain adjacent to zinc finger domain protein 2B (Homo sapiens) (UniProt Q9UIF8)
# Sequence of UniProt Q9UIF8 (Q9UIF8 whole entry, looked up, the tested form may be a part): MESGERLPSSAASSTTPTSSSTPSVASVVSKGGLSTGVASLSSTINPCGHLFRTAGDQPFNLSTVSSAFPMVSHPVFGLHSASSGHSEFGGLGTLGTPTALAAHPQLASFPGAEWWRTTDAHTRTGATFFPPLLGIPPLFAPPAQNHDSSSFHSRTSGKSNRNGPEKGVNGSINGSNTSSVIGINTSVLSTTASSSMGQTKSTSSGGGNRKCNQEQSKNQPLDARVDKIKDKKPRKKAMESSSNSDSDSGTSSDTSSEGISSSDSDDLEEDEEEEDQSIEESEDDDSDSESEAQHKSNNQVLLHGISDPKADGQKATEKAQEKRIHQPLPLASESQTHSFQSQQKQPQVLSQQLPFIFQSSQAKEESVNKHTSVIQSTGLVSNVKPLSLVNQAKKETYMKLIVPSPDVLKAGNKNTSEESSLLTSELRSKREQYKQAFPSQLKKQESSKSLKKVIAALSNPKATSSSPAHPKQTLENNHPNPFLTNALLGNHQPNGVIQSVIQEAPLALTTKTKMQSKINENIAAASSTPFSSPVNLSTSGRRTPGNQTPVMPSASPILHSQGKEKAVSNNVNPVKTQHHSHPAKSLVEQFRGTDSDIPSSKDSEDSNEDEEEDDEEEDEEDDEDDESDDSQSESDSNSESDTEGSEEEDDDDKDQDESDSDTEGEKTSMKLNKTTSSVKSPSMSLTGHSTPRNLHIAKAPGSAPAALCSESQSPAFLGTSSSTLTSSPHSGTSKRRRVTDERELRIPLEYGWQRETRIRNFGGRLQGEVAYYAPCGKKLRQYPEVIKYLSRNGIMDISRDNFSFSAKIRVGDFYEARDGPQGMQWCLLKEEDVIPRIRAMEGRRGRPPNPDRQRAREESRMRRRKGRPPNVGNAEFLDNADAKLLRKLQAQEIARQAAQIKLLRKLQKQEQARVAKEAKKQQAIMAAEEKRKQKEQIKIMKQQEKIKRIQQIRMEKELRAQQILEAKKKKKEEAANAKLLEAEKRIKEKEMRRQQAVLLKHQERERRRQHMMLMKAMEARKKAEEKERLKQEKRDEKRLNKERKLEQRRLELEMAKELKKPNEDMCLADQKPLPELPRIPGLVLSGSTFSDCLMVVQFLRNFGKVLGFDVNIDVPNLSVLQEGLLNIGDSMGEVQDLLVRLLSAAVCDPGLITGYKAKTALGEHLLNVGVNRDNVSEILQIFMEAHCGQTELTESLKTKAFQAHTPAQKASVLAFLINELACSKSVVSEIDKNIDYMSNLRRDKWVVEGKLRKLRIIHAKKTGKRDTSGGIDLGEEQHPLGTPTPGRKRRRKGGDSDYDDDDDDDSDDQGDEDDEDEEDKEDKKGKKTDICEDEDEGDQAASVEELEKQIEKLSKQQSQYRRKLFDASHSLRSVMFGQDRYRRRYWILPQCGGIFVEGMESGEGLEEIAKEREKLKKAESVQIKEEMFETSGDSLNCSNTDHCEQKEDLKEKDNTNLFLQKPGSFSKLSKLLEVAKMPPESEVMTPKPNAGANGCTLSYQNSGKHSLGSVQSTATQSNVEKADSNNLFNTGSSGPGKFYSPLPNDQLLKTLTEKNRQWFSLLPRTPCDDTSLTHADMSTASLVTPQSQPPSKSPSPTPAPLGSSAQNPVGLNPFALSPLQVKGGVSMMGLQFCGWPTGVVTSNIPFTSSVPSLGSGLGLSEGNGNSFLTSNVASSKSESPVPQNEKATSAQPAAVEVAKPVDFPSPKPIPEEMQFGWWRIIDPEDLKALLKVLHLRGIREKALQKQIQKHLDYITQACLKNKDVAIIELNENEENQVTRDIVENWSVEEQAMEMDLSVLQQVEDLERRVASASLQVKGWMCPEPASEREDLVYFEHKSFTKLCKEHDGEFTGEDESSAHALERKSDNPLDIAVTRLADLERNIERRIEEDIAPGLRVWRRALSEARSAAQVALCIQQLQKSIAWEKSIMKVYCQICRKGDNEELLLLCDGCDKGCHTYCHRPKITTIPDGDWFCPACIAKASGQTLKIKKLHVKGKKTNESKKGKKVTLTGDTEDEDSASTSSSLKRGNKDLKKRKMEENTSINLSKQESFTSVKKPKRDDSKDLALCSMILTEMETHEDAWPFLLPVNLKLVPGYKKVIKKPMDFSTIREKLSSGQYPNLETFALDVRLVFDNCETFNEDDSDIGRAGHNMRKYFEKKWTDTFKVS
# Test: qHTS Assay for Inhibitors of BAZ2B; further: nearly all actives have a fitted effect of over 60% in size
# Conditions: AlphaScreen BAZ2B-H3K14Ac peptide displacement; series mostly up to 114 µM
# In short: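 Protein-peptide AlphaScreen: BAZ2B 50 nM, b-H3K14Ac 50 nM, 1x PBS pH 7.4 + 0.01% Tween-20. Preincubation 30 min RT; cpd 30 min RT (top 110 uM); beads 20 min RT, light-protected.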
# Potency means the concentration at half of the fitted maximal effect; tags describe the fitted curve by direction and shape.
row,SMILES,Potency
1,C#CCOCCOCCOCCNc1nc(N2CCN(C(=O)CCCCCCCCCCNC(=O)[C@@H](CCC(=O)O)n3cc(CCCCCN)nn3)CC2)nc(N2CCN(C(=O)CCCCCCCCCCNC(=O)[C@H](CO)n3cc(CCCSC)nn3)CC2)n1,"inconclusive: 89.1 µM [inhibitor, single point]"
2,Cn1c(=O)n(C)c2cc(NS(=O)(=O)c3ccc4c(c3)CCCC4)ccc21,"inconclusive: 50.1 µM [inhibitor, partial curve]"
3,CCOC(=O)C1CCCN(C(=O)CN2C(=O)C(CC)Oc3ccc(C)cc32)C1 (stereo not given),"inconclusive: 89.1 µM [inhibitor, single point]"
4,COc1ccc(OC)c(-c2cc(C(=O)NCCCn3ccnc3)no2)c1,"inconclusive: 50.1 µM [inhibitor, partial curve]"
5,O=C(Nc1nnc(S(=O)(=O)N2CCCCC2)s1)c1ccc(Cl)cc1,"inconclusive: 2.82 µM [inhibitor, full curve, poor fit]"
6,O=C1NC(=O)C(c2ccccc2[N+](=O)[O-])=C1Nc1ccc(O)c(Cl)c1,active: 50.1 µM
7,CC(C)(C)C(=O)Nc1ccc(S(=O)(=O)Nc2nccs2)cc1,inactive
8,COc1ccc(CN2C(=O)c3cccnc3C2Nc2cc(Cl)ccc2OC)cc1 (stereo not given),active: 25.1 µM
9,O=C(CSc1ncnc2nc[nH]c12)c1ccccc1,"inconclusive: 89.1 µM [inhibitor, single point]"
10,COc1ccc(NC(=O)Cc2ccccc2)cn1,inactive
11,CC(C)NC(=S)NN=C1CCC(c2ccccc2)CC1 (stereo not given),"inconclusive: 39.8 µM [inhibitor, partial curve]"
12,Cc1ccnc(NC(=S)NC(=O)/C=C/c2ccco2)c1,"inconclusive: 89.1 µM [inhibitor, single point]"
13,CC(=O)NC1=NC(=O)/C(=C/N2CCCCC2)S1,inactive
14,O=C(NCCc1ccccc1Cl)C1CCC(=O)N(CC2CCCCC2)C1 (stereo not given),inactive
15,CCN(CC)C(=O)c1[nH]cnc1C(=O)Nc1ccon1,"inconclusive: 100 µM [inhibitor, single point]"
16,C#CCOc1ccc(C2C(C(=O)OC)=C(C)NC3=C2C(=O)c2ccccc23)cc1OCC (stereo not given),active: 22.4 µM
17,Cc1sc(NC(=O)C2CSC3(C)CCC(=O)N23)nc1-c1ccccc1 (stereo not given),"inconclusive: 89.1 µM [inhibitor, single point]"
18,Clc1ccc(CCNc2ncnc3nc[nH]c23)cc1,inactive
19,CCn1c(C)cc(C(=O)CN2C(=O)c3ccccc3S2(=O)=O)c1C,"inconclusive: 89.1 µM [inhibitor, single point]"
20,Cc1cc(N(C)N)nc(NC(=O)NS(=O)(=O)c2ccccc2Cl)n1,active: 28.2 µM
21,OC(COCC1COc2ccccc2O1)CN1CCc2ccccc2C1 (stereo not given),inactive
22,COc1ccc(N2CCN(C(=O)CN(Cc3ccccc3)S(C)(=O)=O)CC2)cc1,inactive
23,CN(C(=O)c1ccc(NC(=O)Cc2cccc(NC(=O)C3CCCN(C(=O)C4CCC4)C3)c2)cc1)C1CCCC1 (stereo not given),inactive

row,SMILES,Potency
1,Cc1cccn2c(=O)c(/C=C(\C#N)C(=O)NCc3ccco3)c(N3CCCC(C)C3)nc12 (stereo not given),"inconclusive: 39.8 µM [inhibitor, full curve, poor fit]"
2,COCc1cc(C)nc2sc(C(=O)NCCO)c(-n3cccc3)c12,"inconclusive: 89.1 µM [inhibitor, single point]"
3,CCOc1cc2c(cc1OCC)C(C(=O)O)C(c1cc(Br)c(O)c(OC)c1)N(C)C2=O (stereo not given),inactive
4,CC(=O)Nc1sc(N/N=C/c2ccc(O)cc2)nc1-c1ccc(C)cc1,"inconclusive: 39.8 µM [inhibitor, partial curve]"
5,COc1ccc(OC)c(NC(=O)c2cc(S(=O)(=O)NCc3ccco3)ccc2F)c1,"inconclusive: 44.7 µM [inhibitor, partial curve]"
6,Cc1c(C(=O)N2CCc3ccccc32)oc2ccccc12,inactive
7,COc1cc([N+](=O)[O-])cc(/C=C2/SC(=S)N(Cc3ccccc3)C2=O)c1O,active: 14.1 µM
8,CC(=O)/C(C#N)=C1\NC(=O)C(Cc2ccccc2Cl)S1 (stereo not given),"inconclusive: 89.1 µM [inhibitor, single point]"
9,Cc1ccc(S(=O)(=O)/C(C#N)=C/c2c(N3CC(C)OC(C)C3)nc3ccccn3c2=O)cc1 (stereo not given),"inconclusive: 89.1 µM [inhibitor, single point]"
10,COc1ccccc1CN1CCN(C(c2ccccc2)c2ccccc2)CC1,active: 79.4 µM
11,COc1ccc(NC(=O)c2sc(SCc3ccccc3)nc2N)cc1,"inconclusive: 35.5 µM [inhibitor, partial curve]"
12,CC(C)c1csc(CN2CCC(CO)(Cc3cccc(F)c3)CC2)n1,inactive
13,CN(c1ccccc1)c1nc(N)c([N+](=O)[O-])c(N2CCOCC2)n1,inactive
14,COc1ccc(Cl)cc1N1C(=O)CC(N2CCc3ccccc32)C1=O (stereo not given),"inconclusive: 89.1 µM [inhibitor, single point]"
15,c1ccc(-c2cncnc2)cc1,"inconclusive: 89.1 µM [inhibitor, single point]"
16,COc1ccc(N(Cc2ccccc2)C(=O)c2ccccc2[N+](=O)[O-])cc1,"inconclusive: 50.1 µM [inhibitor, partial curve]"
17,O=C(Nc1ccc(S(=O)(=O)Nc2ncccn2)cc1)C1=NN(c2ccccc2)C(=O)CC1,"inconclusive: 70.8 µM [inhibitor, single point]"
18,C=CCn1c(SCC(=O)NCCOC)nc2scc(-c3ccco3)c2c1=O,"inconclusive: 79.4 µM [inhibitor, single point]"
19,CCOC(=O)c1cnc2ccc(OCC)cc2c1N1CCN(c2cccc(Cl)c2)CC1,"inconclusive: 100 µM [inhibitor, partial curve]"
20,Cc1cc(C(=O)COc2ccccc2[N+](=O)[O-])c(C)n1C1CC1,"inconclusive: 22.4 µM [inhibitor, full curve]"
21,CC(C)Oc1ccc(CNC(=O)C2COc3ccccc3C2)cc1 (stereo not given),inactive
22,COc1ccc(NC(=O)COC(=O)Cc2c[nH]c3ccccc23)cc1OC,"inconclusive: 89.1 µM [inhibitor, single point]"
